According to PubChem BioAssay AID652104 (National Center for Advancing Translational Sciences (NCATS), 2013):
Values joined by “and” are separate entries in the source; they are usually repeats but may differ in a detail not shown here. Equal values may be shown once. Screen size: about 410,000 compounds; about 7,200 (1.8%) were called active. Inconclusive results, whose numbers are uncertain, are shown with a selection of clear calls. The call rests on the fitted dose curve; in most records, active means well fitted activation curve with a large enough effect; inconclusive means small, poorly fitted or top-dose-only effect, or another doubt; inactive means no such curve, though single readings can be large or run the other way. Potencies beside an inconclusive call are fits to weak or partial responses and may not hold up.

test: qHTS of TDP-43 Inhibitors; settings: TDP-43 expressing yeast growth rescue, BacTiter-Glo, 24 h; growth rescue (activation): at 46.1 µM (top of the series) unless noted; further: nearly all actives have a fitted effect of over 50% in size; on growth rescue (activation): % of control where 0% means no effect
Procedure, shortened: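 Growth rescue of TDP-43-toxic yeast measured as ATP luminescence (BacTiter-Glo). Cells grown to mid-log in raffinose, induced in galactose at OD600=0.02, exposed to compound 24 hr at 30 deg C.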
Potency means the concentration at half of the fitted maximal effect; tags describe the fitted curve by direction and shape.

Compound | Potency | growth rescue (activation)
COc1ccc(OC)c(C2=CC(=O)C[C@H](c3ccc(F)cc3)C2)c1 | inconclusive: 20 µM [activator, single point] | –
C=CCn1nc(C(=O)Nc2ccc(OC)cc2)cc1-c1sc(NC(=O)c2ccccc2)nc1C | inconclusive: 39.8 µM [activator, partial curve, poor fit] | –
CCN(C(=O)CSc1nc2ccccc2n1CC(=O)Nc1ccc(F)cc1F)c1ccccc1 | inactive | –
NC(=S)N/N=C/c1ccccc1OC(=O)/C=C/c1ccccc1 | inconclusive: 35.5 µM [activator, partial curve] | –
Cc1cn2c(=O)c(S(=O)(=O)NCc3ccccc3Cl)c(C)nc2s1 | inactive | –
Cc1ccc2cccc(N=Cc3c(C)[nH]n(-c4ccccc4)c3=O)c2n1 | inconclusive: 14.1 µM [activator, single point] | –
N/C(Cc1ccc(Cl)cc1)=N\OC(=O)Cc1ccc([N+](=O)[O-])cc1 | – | inconclusive: -91.8% [activator]
CCN(CCO)Cc1cc(=O)oc2cc3c(cc12)CCC3 | inactive | –
COC(=O)c1sc(=S)n(-c2ccc(Cl)cc2)c1C | active: 12.6 µM | –
O=C(CCc1ccccc1)NCCc1ccc(F)cc1 | inactive | –
COc1ccc(OCc2cc(C(=O)N(C)C(C)c3ccon3)no2)c(Cl)c1 (stereo unspecified) | inconclusive: 11.2 µM [activator, partial curve] | –
Clc1cccc(N/N=C/c2ccc(N3CCOCC3)cc2)c1 | inconclusive: 12.6 µM [activator, single point] | –
CCOC(=O)c1c(C)nc(C)c(C(=O)OCC)c1-c1cccnc1 | inactive | –
COC(=O)c1ccc(N2C(=O)CC(N(C)Cc3ccccc3)C2=O)cc1 (stereo unspecified) | active: 7.08 µM | –
Cc1nnc2n(-c3ccccc3)c(=O)c3c4c(sc3n12)CCCC4 | inconclusive: 20 µM [activator, single point] | –
O=S(=O)(c1ccc2[nH]ccc2c1)N1CCCCCC1 | inconclusive: 20 µM [activator, single point] | –
CCC1CCCCN1S(=O)(=O)c1ccc(C(=O)Nc2nnc(C3CC3)o2)cc1 (stereo unspecified) | inconclusive: 25.1 µM [activator, single point] | –
COc1ccccc1OCc1nc(C#N)c(N2CC(C)CC(C)C2)o1 (stereo unspecified) | inconclusive: 14.1 µM [activator, single point] | –
O=S(=O)(Nc1ccn(-c2ccccc2)n1)c1ccc(Br)cc1 | inconclusive: 31.6 µM [activator, single point] | –
C[C@]12CCC(=O)CC1CCC1C2CC[C@@]2(C)C1CC[C@@]21CCO1 (stereo partly specified) | inconclusive: 20 µM [activator, single point] | –
CC1CCN(C(=O)C2CCN(S(=O)(=O)c3cc(Cl)ccc3Cl)CC2)CC1 | active: 12.6 µM | –
CCOc1ccc(CN(C)C(=O)CCc2ccc(S(=O)(=O)N3CCCCCC3)cc2)cc1 | inconclusive: 35.5 µM [activator, single point] | –
CC(Cc1ccc(O)c(O)c1)C(C)Cc1ccc(O)c(O)c1 (stereo unspecified) | inconclusive: 12.6 µM [activator, partial curve] | –
O=C(O)c1cccc(S(=O)(=O)Nc2cc(Cl)ccc2Cl)c1 | inactive | –

Compound | Potency | growth rescue (activation)
Cc1cccc(-n2ccnc2SCC(=O)Nc2ccc3c(c2)OCO3)c1 | active: 20 µM | –
CCCCN(C)CCCNC(=O)c1cc(=O)[nH]c2ccc(S(=O)(=O)N3CCCCC3C)cc12 (stereo unspecified) | inactive | –
CCOC(=O)C1(CC)CC(CSc2nc3ccccc3[nH]2)OC1=O (stereo unspecified) | inconclusive: 0.562 µM [activator, full curve, poor fit] | –
CC1CCCN(c2nc3c(c(=O)n(C)c(=O)n3C)n2CCSc2nc3ccccc3s2)C1 (stereo unspecified) | inconclusive: 20 µM [activator, single point] | –
Cc1cc2c3ccccc3ncn2n1 | inactive | –
FC(F)Sc1nc(-c2ccccc2)c(-c2ccccc2)n1C(F)F | inconclusive: 10 µM [activator, partial curve, poor fit] | –
O=C(O)c1ccc(NC(=O)c2cc3ccccc3o2)cc1 | inconclusive: 3.55 µM [activator, partial curve] and inconclusive: 12.6 µM [activator, partial curve] | –
Cc1cccc(C)c1Nc1c(-c2ccc(N3CCOCC3)cc2)nc2cnccn12 | inconclusive: 31.6 µM [activator, single point] | –
CCCCSCCCNC(=O)C1CCC(CNS(=O)(=O)c2c(C)cc(C)cc2C)CC1 (stereo unspecified) | inactive | –
O=C(Oc1c(-c2ccccc2)c(=O)n2c3c(cccc13)CC2)c1ccccc1 | inconclusive: 15.8 µM [activator, single point] | –
Oc1ccc(/C=N/Nc2nc(-c3ccccc3F)nc3ccccc23)c(O)c1 | inconclusive: 3.16 µM [activator, full curve] | –
Clc1ccc(Cc2nnc(-c3cccs3)o2)cc1 | inconclusive: 12.6 µM [activator, single point] | –
CC(NC(=O)CN(C)S(=O)(=O)c1ccc(F)cc1)C1CC2CCC1C2 (stereo unspecified) | inconclusive: 35.5 µM [activator, single point] | –
CCCCCOC(=O)Nc1nnc(CCCCC)s1 | inconclusive: 11.2 µM [activator, partial curve] | –
COc1ccc(CCC(=O)NCc2nc3cccnc3n2Cc2ccc(F)cc2)cc1 | inactive | –
Cc1ccc(Cl)cc1N1CCN(C(=O)c2ccc3c(c2)CCN3S(=O)(=O)c2ccccc2)CC1 | inactive | –
CCOc1ccccc1N(C(=O)c1snc(C(N)=O)c1N)C(CC)C(=O)NC1CCCC1 (stereo unspecified) | inactive | –
Cc1ccc(Sc2ncccc2COC(=O)NC(C)C)cc1 | inconclusive: 12.6 µM [activator, partial curve] | –
CC(C)CN(C(=O)COC(=O)c1ccc([N+](=O)[O-])s1)c1c(N)n(Cc2ccccc2)c(=O)[nH]c1=O | inconclusive: 2.82 µM [activator, single point] | –
CCOC(=O)C1=NN(c2ccc(Cl)cc2)C(c2ccccc2)CC1=O (stereo unspecified) | inconclusive: 11.2 µM [activator, partial curve] | –
O=C(COc1ccc2ccc(=O)oc2c1)N1CCN(c2ccccc2)CC1 | active: 20 µM | –
O=C(COC(=O)c1ccccc1OCc1ccccc1Cl)NCC1CCCO1 (stereo unspecified) | inconclusive: 35.5 µM [activator, single point] | –
C=CCOc1ccc2c(OC)c3ccoc3nc2c1OC | active: 11.2 µM | –
Cc1c(Cl)cccc1NC(=O)C1CCCN(c2ncnc3onc(C)c23)C1 (stereo unspecified) | inactive | –

Compound | Potency | growth rescue (activation)
COc1ccccc1CNS(=O)(=O)c1ccc2[nH]cc(C(=O)O)c(=O)c2c1 | inactive | –
Cc1ccc(-n2ncc3c2CCCC3NC(=O)c2ccccc2N2CCOCC2)cc1C (stereo unspecified) | – | inconclusive: -73.8% [activator]
Cc1ccc(N2CCN(/N=C/c3ccccc3)CC2)cc1 | inconclusive: 3.16 µM [activator, single point] | –
Cc1cc(NC(=O)CSc2nc(-c3ccccc3C)nc3c2c(=O)n(C)c(=O)n3C)no1 | inconclusive: 6.31 µM [activator, single point] | –
CCOc1cc(C(=O)Nc2cccc3cccnc23)cc(OCC)c1OCC | inconclusive: 6.31 µM [activator, partial curve] | –
Cc1cc(Br)ccc1NC(=S)NCCc1ccccc1 | inconclusive: 20 µM [activator, partial curve] | –
COc1ccc(Cl)cc1NC(=O)c1ccc2c(c1)CCN2S(C)(=O)=O | inactive | –
CCOC(=O)N1CCN(C(=O)C[C@@H]2C[C@@]3(C(=O)OC)CCCCC=C3N(Cc3ccccc3)C2=O)CC1 | inactive | –
COc1ccc2oc(C(=O)OCC(=O)N(C)Cc3ccccc3)c(C)c2c1 | inconclusive: 11.2 µM [activator, partial curve] | –
CC1Cc2ccccc2N1C(=O)COC(=O)c1ccc(Br)o1 (stereo unspecified) | inconclusive: 12.6 µM [activator, single point] | –
O=C(Nc1ccccc1)c1cc(C2CCCCN2S(=O)(=O)c2cccs2)on1 (stereo unspecified) | inconclusive: 11.2 µM [activator, partial curve] | –
CCOc1ccc(NS(=O)(=O)c2cc(NC(=O)c3cccc(C)c3)ccc2Cl)cc1 | inactive | –
COc1ccccc1NC(=O)c1cccs1 | inconclusive: 7.94 µM [activator, partial curve] | –
O=C(NCCc1ccccc1)c1ccc2c(c1)N(Cc1ccccc1)C(=O)c1ccccc1S2(=O)=O | inactive | –
O=C(NNc1ccc(Cl)cc1)C1CCC1 | inconclusive: 1.78 µM [activator, partial curve] | –
Cc1cc(=O)oc2c1ccc1ccccc12 | inconclusive: 12.6 µM [activator, partial curve] | –
OCCN(Cc1ccccn1)Cc1ccccn1 | inactive | –
CC(Nc1cc(N2CCN(C(=O)C(C)(C)C)CC2)ccc1[N+](=O)[O-])c1ccccc1 (stereo unspecified) | active: 20 µM | –
Cc1ccc(CN(C(=O)C(F)(F)F)C(C(=O)NC2CCCCC2)c2ccco2)cc1 (stereo unspecified) | inconclusive: 35.5 µM [activator, single point] | –
O=C(NCCN1C(=O)S/C(=C\c2ccc(OC(F)F)cc2)C1=O)c1cnccn1 | inconclusive: 20 µM [activator, partial curve, poor fit] | –
O=C(Nc1ccc2c(c1)CCC2)c1ccc(Cl)nc1 | inconclusive: 25.1 µM [activator, partial curve, poor fit] | –
COC(=O)c1ccccc1C(=O)c1cccc2ccccc12 | inconclusive: 12.6 µM [activator, single point] | –
Cc1cccc2nc3ccccc3nc12 | inconclusive: 12.6 µM [activator, partial curve] | –
